# Measurements as given in ChEMBL document CHEMBL4888484, “Replenishing the malaria drug discovery pipeline: Screening and hit evaluation of the MMV Hit Generation Library 1 (HGL1) against asexual blood stage Plasmodium falciparum ,using a nano luciferase reporter read-out” (2022).
# Hit rate of the full screen: of about 150,000 compounds, about 540 (0.36%) showed an effect of 50% or more. The list shows a part of the results.
# System: Plasmodium falciparum
# Assay: Primary screen in NF54 nanoGlo assay, in single point, at 2uM, 72h; a lower Z score goes with more inhibition
# Format: functional, Erythrocyte
# Conditions: timepoint 72 hour
SMILES,% Inhibition,Z score
O=C1CC[C@H](NC2CCCCCCC2)CCN1Cc1cc2c(cc1Cl)OCO2,15%,-1.65
CC(C)(C)OC(=O)N/N=C(/N)Cc1ccc(Cl)cc1,-3%,0.34
O=C(NCc1nc(C2CCCCC2)no1)C1(N2CCCC2)CCCCC1,-7%,0.84
CC1CN(C(C)C(=O)Nc2ccccc2-c2ccccc2)CCO1 (stereo not drawn),-3%,0.37
C[C@H](NC(=O)NC1(C(N)=O)CCCC1)c1ccsc1,-7%,0.77
O=C(Cc1cccc(O)c1)N(CCc1ccccc1)[C@H]1CCOC1,-8%,0.91
Cc1nc2ccccc2c(NC(=O)[C@H]2CCN(C)C(=O)C2)c1C(C)C,-8%,1.15
COCC[C@]1(NS(=O)(=O)c2ccccc2)CCN(C(=O)c2cnn(C)c2C)C1,-14%,1.57
Cc1ccsc1-c1nsc(NC(=O)N[C@H]2CCO[C@@H]2c2ccncc2)n1,-4%,0.37
Cc1ccsc1-c1[nH]nc(N)c1-c1ccc2c(c1)OCO2,-3%,0.44
C[C@H]1CCCN(c2ccc(C(N)=O)cc2NC(=O)c2onc3ccccc23)C1,2%,-0.23
CC[SH](=O)(O)c1ccc2c(c1)N(CC(=O)N1CCN(c3ccc(OC)cc3)CC1)C(=O)CO2,27%,-3.04
Cc1cc(CNC(=O)N2CCC[C@H](c3cncn3C(C)(C)C)C2)on1,-9%,1.23
CCc1ncc(CN(C)Cn2c3c(sc2=O)C[C@@H](C)CC3)s1,-15%,1.55
Cc1cnc(CC2CCN(C(=O)c3ccco3)CC2)n1CC1CC1,-16%,2.23
Cc1cncc(CCC(=O)NC[C@]23C[C@H]2COC32CCC2)c1,-1%,0.18
Cn1cnnc1N1CCN(C(=O)Nc2c(F)cc(F)cc2-c2ccccc2)CC1,-4%,0.71
N#Cc1c(NC(=O)C2CCCC2)sc2c1CCC2,-4%,0.78
Cc1nc(-c2ccc(Cl)c(S(=O)(=O)N3CCC(C(=O)Nc4cccnc4)CC3)c2)no1,7%,-0.93
CCOC(=O)c1noc2nc(C)nc(NC3CCN(Cc4ccccc4)CC3)c12,-17%,3.15
O=C(Nc1ccc2c(c1)CCC2)c1ccc2ccccc2n1,32%,-2.72

SMILES,% Inhibition,Z score
COC[C@H](NC(=O)C1(C)COC1)c1ccccn1,6%,-0.8
Cc1nc(N2CCCC2)ccc1Nc1ncnc2onc(C)c12,-1%,0.13
Cc1nc2ccnn2c(C)c1CCC(=O)N[C@H]1C[C@H](CO)C1,5%,-0.81
CCc1nn(CC(=O)N2CCN(c3ccccn3)CC2)c(=O)c2cc3ccccc3n12,-10%,1.33
Cn1cc(Cl)c(C(=O)N(Cc2ccncc2)C[C@H]2CCCO2)n1,-6%,1.05
Cc1ccc(C)c(S(=O)(=O)Nc2ccc(-c3cc4cc(Cl)ccc4[nH]3)cc2)c1,-15%,1.29
COc1nccnc1N1CCC2(CC1)CC(=O)N(Cc1c(C)noc1C)C2,-7%,1.26
c1cc(CN2CCN(c3ccc4nccn4n3)CC2)ccn1,-17%,1.46
C[C@@H](c1ccccc1)n1cc(NC(=O)CN2CCN(C)C(=O)C2)cn1,-3%,0.47
CCC(CC)n1nccc1C(=O)NCC(C)(C)c1ccc(C)cn1,-10%,1.55
O=C(c1cccnc1)N1C[C@H]2CC[C@@H](C1)N(C(=O)NCc1ccccc1)C2,-16%,1.59
C[C@H]1Cc2ccccc2N1C(=O)CN1C(=O)c2cc(Cl)c(Cl)cc2C1=O,-16%,2.43
C#CCOc1ccc(CNC(C)(C)CO)cc1OCC,-2%,0.36
C[C@H]1CCCCN1Cc1cc2ccc(Cl)cc2n(Cc2ccccn2)c1=O,-1%,0.19
O=C(NCc1cccnc1)c1nc(C2CC2)nc2c1OCCO2,11%,-1.46
Cc1ccc(F)c(S(=O)(=O)N2CCC=C(c3cnn(C)c3)C2)c1,2%,-0.41
Cc1nc(C2CC(O)C2)cc(N2CC(N3CCCCC3)C2)n1 (stereo not drawn),13%,-1.73
COCCC1(C(N)=O)CCN(C2CN(S(=O)(=O)c3cccc(Cl)c3)C2)CC1,-3%,0.4
C[C@@H](C1CC1)N(C)C(=O)Cn1c(=O)n(C)c2ccccc21,-14%,2.58
O=C(c1cc2cc(Cl)ccn2n1)N1CCC(n2nnc3c2CCCC3)CC1,7%,-0.85
CC(C)(NC(=O)Nc1ccn(CC(F)(F)F)n1)C(=O)N1CCCC1,1%,-0.17

SMILES,% Inhibition,Z score
Fc1ccc([C@@H]2Cn3nc(-c4nc(-c5ccccn5)no4)cc3CO2)cc1,5%,-0.52
COc1ccc(C(=O)N2CCNC(=O)C2)cc1S(=O)(=O)N1CCN(c2cccc(Cl)c2)CC1,-13%,2.13
Cc1nonc1CC(=O)N1CCC[C@H]1C(F)(F)F,-2%,0.34
O=C(CCC1CCCC1)Nc1ccc(-c2nnc3n2CCCC3)cc1,-17%,1.6
C[C@@]12CCCN1C(=O)[C@@H](c1ccccc1)NC2=O,-1%,0.25
Nc1nc(N)nc(Cn2cccc(C(F)(F)F)c2=O)n1,-3%,0.46
O=C1C[C@]2(NC(=O)c3cccc(Cl)c3Cl)CCCC[C@@H]2N1,0%,0.04
O=C(Cc1ccsc1)N1CC2(C[C@H](N3CCCCC3)CO2)C1,-7%,1.1
CN1CCc2ccc(C(=O)NC3(C(=O)NCC4CC4)CCCC3)cc21,3%,-0.28
COc1c(F)cc(F)cc1-c1ccc(C(=O)NC2CC2)cc1,-10%,1.73
CCC[C@H]1CN(Cc2ccc3nsnc3c2)C[C@@H]1NS(C)(=O)=O,-8%,1.06
CCCc1cc(C(=O)N(Cc2ccccn2)C[C@@H]2CCC(=O)N2)[nH]n1,-3%,0.59
CC(C)N(CC(N)=O)S(=O)(=O)c1ccc(F)c(Cl)c1,7%,-1.05
CCOC(=O)C1C2C(=O)N(c3ccc(Cl)cc3)C(=O)C12 (stereo not drawn),-2%,0.31
C[C@H]1CN(Cc2ccn(CC(F)(F)F)n2)CCN(C2CCC2)C1,-13%,2.42
Nc1c(-c2ccc(Cl)cc2)cnc2cc(-c3ccc(Cl)c(Cl)c3)nn12,-1%,0.13
Cc1ccc(CNC2CCN(C)CC2)s1,-5%,0.61
COC(=O)Nc1cccc(NC(=O)N2CC(OCc3cccc4ccccc34)C2)c1,1%,-0.22
CC(C)(CCS(C)(=O)=O)Nc1ccc(C(F)(F)F)cn1,2%,-0.33
C=CCN1CCC[C@H](Cn2cncn2)C1,-11%,1.15
Nc1nn(-c2cc(C(=O)O)cc(S(=O)(=O)N3CCCCCC3)c2)c2ccccc12,-3%,0.36

SMILES,% Inhibition,Z score
c1nc2nc3c(c(N4CCCCCCCC4)n2n1)CCCC3,1%,-0.13
COc1ccc(OC)c(NC(=O)CN2CCc3[nH]c4ccc(F)cc4c(=O)c3C2)c1,45%,-6.35
CN(C)c1nc(CN2CCC(CO)CC2)ns1,33%,-4.18
CCN(C(=O)c1nc(C)ccc1Br)[C@H]1CCNC1=O,-10%,1.6
COCCn1cnc2c(-c3ccccc3)cn(CC(=O)Nc3ccc(C)c(C)c3)c2c1=O,12%,-1.77
OCc1cc(CC2(NCc3ccc4c(c3)OCO4)COC2)no1,32%,-3.61
CCCCCOCC(=O)NCc1cncc(OC)c1,-7%,0.99
O=S(=O)(Cc1c(Cl)cccc1Cl)NCc1ccco1,3%,-0.26
CCOc1cccc2nnc(NC(=O)NCc3cccc(OC)c3)n12,-6%,0.71
O[C@@H](CN1CCC2(CC1)OCCO2)c1ccc(F)cc1,3%,-0.46
CCc1ccc(CCC(=O)N2CCC[C@@H]2Cn2ccnc2C)cc1,-9%,1.24
COc1ccccc1-c1cc(C(F)(F)F)n2ncc(C(=O)O[C@H]3C[C@@H](C)CC[C@@H]3C(C)C)c2n1,-11%,1.58
O=C(c1ccccc1-c1ccccc1)N1CCN(c2ncccn2)CC1,-7%,0.94
CN(C)CCNC(=O)CCCOCCc1ccccc1,-12%,1.35
Cc1ccc(NC(=O)Nc2cc(C)ccc2N2CCCN(Cc3ccc(F)c(F)c3)C2=O)cc1,0%,0.02
Cc1ccc(S(=O)(=O)Nc2[nH]nnc2C(=O)Nc2ccc(C)cc2C)cc1,30%,-3.37
COC(=O)c1cc(OCC(=O)Nc2ccccc2C)c2cc(Cl)ccc2n1,-13%,2.22
O=C(NC1CCOCC1)N1C2C=CCC1CC2 (stereo not drawn),-12%,1.41
O=C(N[C@@H](CC1CC1)C(=O)O)c1cc(-c2ccccc2)ccc1Cl,-8%,1.3
Cc1nc2ccc(-n3ncnc3[C@]3(C)CCCO3)cc2s1,-2%,0.3
O=C(NS(=O)(=O)CC1CCCCC1)[C@H]1CC1(F)F,4%,-0.62
